{
  "source": "PubChem BioAssay AID1347165",
  "about": "(National Center for Advancing Translational Sciences (NCATS), 2019)",
  "note": "Screen size: about 220,000 compounds; about 5,700 (2.6%) were called active. Inconclusive results, whose numbers are uncertain, are shown with a selection of clear calls. Calls come from the whole dose curve; as a rule, active = well fitted inhibition curve with a large enough effect; inconclusive = small, poorly fitted or top-dose-only effect; inactive = no such curve, though single readings can be large or run the other way. Potencies of inconclusive entries are doubtful fits and often do not repeat. Potency is the fitted concentration of half-maximal effect; tags give direction and shape of the fitted curve.",
  "data": [
    {"biological_target": "Lysine-specific demethylase 5B (Homo sapiens) (UniProt Q9UGL1)", "sequence (Q9UGL1 whole entry, looked up)": "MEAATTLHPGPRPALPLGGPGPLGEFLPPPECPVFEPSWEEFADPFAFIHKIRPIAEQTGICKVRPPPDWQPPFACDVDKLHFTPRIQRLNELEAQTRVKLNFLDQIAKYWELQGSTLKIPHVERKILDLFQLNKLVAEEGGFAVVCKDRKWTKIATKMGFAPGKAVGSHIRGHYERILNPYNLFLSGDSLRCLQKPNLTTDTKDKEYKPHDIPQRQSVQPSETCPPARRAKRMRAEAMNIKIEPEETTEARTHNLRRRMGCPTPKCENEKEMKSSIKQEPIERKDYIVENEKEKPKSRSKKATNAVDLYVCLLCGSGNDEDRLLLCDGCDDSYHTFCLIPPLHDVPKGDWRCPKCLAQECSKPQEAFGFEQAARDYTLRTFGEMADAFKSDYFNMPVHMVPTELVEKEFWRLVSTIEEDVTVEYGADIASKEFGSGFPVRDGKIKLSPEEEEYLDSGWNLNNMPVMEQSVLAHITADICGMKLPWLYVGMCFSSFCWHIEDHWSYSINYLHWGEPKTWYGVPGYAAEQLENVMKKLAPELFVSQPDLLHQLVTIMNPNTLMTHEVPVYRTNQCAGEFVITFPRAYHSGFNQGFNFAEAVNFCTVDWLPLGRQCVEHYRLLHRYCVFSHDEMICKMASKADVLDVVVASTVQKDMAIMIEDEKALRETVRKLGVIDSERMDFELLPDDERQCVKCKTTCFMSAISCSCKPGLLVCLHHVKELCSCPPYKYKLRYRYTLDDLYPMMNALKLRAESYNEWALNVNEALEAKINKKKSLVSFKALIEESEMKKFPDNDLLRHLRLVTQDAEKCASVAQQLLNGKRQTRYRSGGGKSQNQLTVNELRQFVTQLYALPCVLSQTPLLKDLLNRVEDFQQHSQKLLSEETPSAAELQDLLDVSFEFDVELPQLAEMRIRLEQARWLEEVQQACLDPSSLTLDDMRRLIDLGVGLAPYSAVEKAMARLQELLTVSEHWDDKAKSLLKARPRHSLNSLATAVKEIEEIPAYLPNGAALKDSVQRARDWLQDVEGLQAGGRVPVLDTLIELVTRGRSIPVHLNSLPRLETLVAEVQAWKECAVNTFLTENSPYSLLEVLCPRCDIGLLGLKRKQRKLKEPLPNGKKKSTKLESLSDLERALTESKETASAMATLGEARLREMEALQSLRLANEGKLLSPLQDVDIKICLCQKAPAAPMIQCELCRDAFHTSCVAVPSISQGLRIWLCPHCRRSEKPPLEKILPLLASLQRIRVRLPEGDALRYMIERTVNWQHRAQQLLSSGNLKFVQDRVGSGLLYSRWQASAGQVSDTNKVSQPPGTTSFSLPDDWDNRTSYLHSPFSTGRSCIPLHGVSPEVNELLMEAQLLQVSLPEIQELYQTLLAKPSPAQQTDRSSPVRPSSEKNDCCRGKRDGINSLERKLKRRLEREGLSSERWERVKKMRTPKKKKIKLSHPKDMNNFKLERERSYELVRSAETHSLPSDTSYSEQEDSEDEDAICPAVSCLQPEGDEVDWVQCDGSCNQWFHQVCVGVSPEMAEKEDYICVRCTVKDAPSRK", "assay": "Primary screen for KDM5B Histone Demethylases FDH-coupled qHTS; note: nearly all actives have a fitted effect of over 70% in size; for activity change, negative = inhibition: 0% is about no effect", "details": "FDH-coupled NADH fluorescence (FDH is formaldehyde dehydrogenase); activity change, negative = inhibition: at 57.7 µM (top of the series) unless noted", "procedure,_shortened": "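Here, H3K4me3 peptide (12.5 µM in substrate mix) is demethylated by KDM5BΔAP, 200 nM final, after 10 min compound exposure. Formaldehyde product is coupled through FDH (0.25 U/mL in mix) to NADH fluorescence; 30-min ΔRFU feeds dose-response curves.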", "values": [
      {"compound": "CC(C)(C)CC(=O)Nc1nc2c(s1)C(=O)CC(C)(C)C2", "activity change, negative = inhibition": "inactive: 17.7%"},
      {"compound": "COc1ccc(C(=O)/C=C/c2cn(CC(O)CN3CCc4ccccc43)c3ccccc23)cc1", "note": "(stereo not drawn)", "Potency": "inconclusive: 8.91 µM [inhibitor, partial curve, poor fit]"},
      {"compound": "CCOC(=O)C(=O)C1=C(N2CCOCC2)/C(=C/c2ccccc2)CC1", "Potency": "inconclusive: 35.5 µM [inhibitor, single point]"},
      {"compound": "COc1cccc(NC(=O)c2ccc3c(c2)NC(C)(COc2ccc4[nH]ccc4c2)CO3)c1", "note": "(stereo not drawn)", "Potency": "active: 31.6 µM"},
      {"compound": "CC(C(=O)O)N1CC2(CCC1=O)CCN(C(=O)N1CCCC1)CC2", "note": "(stereo not drawn)", "activity change, negative = inhibition": "inactive: 25.1%"},
      {"compound": "CCOc1ccc(N2C(=O)c3[nH]nc(-c4ccc(OC)cc4)c3C2c2cccs2)cc1", "note": "(stereo not drawn)", "Potency": "inconclusive: 35.5 µM [inhibitor, single point]"},
      {"compound": "N#Cc1nc(-c2ccc(S(=O)(=O)N3CCOCC3)cc2)oc1N1CCC(Cc2ccccc2)CC1", "Potency": "inconclusive: 31.6 µM [inhibitor, partial curve, poor fit]"},
      {"compound": "Cn1nc(C(=O)N2CCCC2c2ccc3c(c2)OCCCO3)c2ccccc2c1=O", "note": "(stereo not drawn)", "activity change, negative = inhibition": "inactive: -16.2%"},
      {"compound": "Cc1ccc(C)c(Nc2nnc(-c3ccc(C)c(S(=O)(=O)NCC4CCCO4)c3)c3ccccc23)c1", "note": "(stereo not drawn)", "Potency": "inconclusive: 39.8 µM [inhibitor, single point]"},
      {"compound": "COc1ccc(-c2c(C)c3ccc(O)c(CN4CCCC(C)C4)c3oc2=O)cc1OC", "note": "(stereo not drawn)", "Potency": "inconclusive: 28.2 µM [inhibitor, partial curve, poor fit]"},
      {"compound": "COc1ccc(-c2[nH]nc3ncc(C(=O)NCC4CCOCC4)nc23)c(C)c1", "activity change, negative = inhibition": "inactive: 6.93% [at 86.2 µM]"},
      {"compound": "CC(C)CN1C(=O)c2ccc(NC(=O)C3CC3)cc2C1=O", "Potency": "inconclusive: 28.2 µM [inhibitor, partial curve, poor fit]"},
      {"compound": "CC(C)c1noc(-c2cccn3c(CNC(=O)C4CCCC4)nnc23)n1", "Potency": "inconclusive: 25.1 µM [inhibitor, partial curve, poor fit]"},
      {"compound": "CC(Oc1c(F)c(F)c(F)c(F)c1F)C(=O)c1c[nH]c2ccccc12", "note": "(stereo not drawn)", "activity change, negative = inhibition": "inactive: 3.65%"},
      {"compound": "Cc1cc(C)cc(C(=O)NCC(c2ccc(N(C)C)cc2)N2CCCC2)c1", "note": "(stereo not drawn)", "Potency": "inconclusive: 25.1 µM [inhibitor, partial curve, poor fit]"},
      {"compound": "O=C(CCc1c[nH]c2ccccc12)Nc1ccccc1OC(F)F", "activity change, negative = inhibition": "inactive: -14.1%"},
      {"compound": "CCOC(=O)CC(NC(=O)CCc1c(C)nc2ncnn2c1C)c1ccc(C)cc1", "note": "(stereo not drawn)", "Potency": "inconclusive: 5.62 µM [inhibitor, partial curve, poor fit]"},
      {"compound": "CCOc1ccc(C(=O)NCCc2csc(-c3cccc(F)c3)n2)cc1OCC", "activity change, negative = inhibition": "inconclusive: -31.5% [inhibitor]"},
      {"compound": "Cc1cn2c(=O)c(S(=O)(=O)Nc3ccc(F)cc3F)c(C)nc2s1", "Potency": "inconclusive: 28.2 µM [inhibitor, partial curve, poor fit]"},
      {"compound": "O=C(CSc1nnc2ccccn12)N1CCN(S(=O)(=O)c2ccccc2)CC1", "Potency": "inconclusive: 39.8 µM [inhibitor, single point]"},
      {"compound": "O=C(NCc1ccco1)c1ccc2c(c1)N(Cc1ccc(Cl)cc1)C(=O)c1ccccc1S2(=O)=O", "Potency": "inconclusive: 6.31 µM [inhibitor, partial curve, poor fit]"},
      {"compound": "CCOc1cc(C#N)ccc1OC(=O)c1ccccc1OC", "activity change, negative = inhibition": "inactive: 0.771%"},
      {"compound": "Fc1ccc2c(c1)nc1n2[C@@H](CNC2CCC2)COC1", "activity change, negative = inhibition": "inactive: 16.8% [at 115 µM]"},
      {"compound": "Cc1ccc2c(C(=O)N3CCCCCC3)cc(NC(=O)C3CCC3)cc2n1", "Potency": "active: 31.6 µM"},
      {"compound": "Cc1ccc(/C=N/NS(=O)(=O)c2ccc(C)c([N+](=O)[O-])c2)s1", "activity change, negative = inhibition": "inactive: -18.3%"},
      {"compound": "COc1ccc(C2CC(=O)Nc3c2c(C)nn3-c2ncnc3nc[nH]c23)cc1O", "note": "(stereo not drawn)", "activity change, negative = inhibition": "inactive: -3.72%"},
      {"compound": "CCc1ccc(S(=O)(=O)c2cn(C)c3cc(N4CCCC4)c(F)cc3c2=O)cc1", "Potency": "inconclusive: 2.82 µM [inhibitor, partial curve, poor fit]"},
      {"compound": "CN(Cc1ccc(F)cc1)C(=O)CCc1ncc(-c2ccccc2)o1", "activity change, negative = inhibition": "inactive: 7.8%"},
      {"compound": "Cc1ccc(/C=C2/CCc3c2nc2ccccc2c3C(=O)O)s1", "Potency": "inconclusive: 28.2 µM [inhibitor, single point]"},
      {"compound": "O=C(NCCCN1CCc2ccccc2C1)c1ccccc1C(F)(F)F", "activity change, negative = inhibition": "inactive: -27.3%"},
      {"compound": "Nc1nc(-c2cccc(CN3CCOCC3)c2)cc(N2CCCC2)n1", "Potency": "inconclusive: 22.4 µM [inhibitor, single point]"},
      {"compound": "COCC(=O)N/N=C\\c1ccc(OC/C=C/c2ccccc2)c(OC)c1", "Potency": "inconclusive: 22.4 µM [inhibitor, partial curve, poor fit]"},
      {"compound": "O=C(CN1CC(=O)NC1=O)NCc1ccc2[nH]c3c(c2c1)CCCCCC3", "Potency": "active: 22.4 µM"},
      {"compound": "COc1ccc(-c2cc(-c3ccccc3)nc(SCC(=O)Nc3ccccc3F)c2C#N)cc1", "Potency": "inconclusive: 3.98 µM [inhibitor, partial curve, poor fit]"},
      {"compound": "Cc1cccc(NC(=O)c2cnc3ccccc3n2)n1", "activity change, negative = inhibition": "inactive: -7.71%"},
      {"compound": "Cc1ccc(-n2nc(C)c([C@H]3C=C[C@@H](O)C3)c2C)cc1Cl", "activity change, negative = inhibition": "inactive: -4.84% [at 86.2 µM]"},
      {"compound": "CCCN1C(=O)c2ccccc2NC1c1ccc(Cl)c(Cl)c1", "note": "(stereo not drawn)", "Potency": "inconclusive: 22.4 µM [inhibitor, partial curve, poor fit]"},
      {"compound": "CC(C)C(=O)NCCSCc1ccsc1", "activity change, negative = inhibition": "inactive: 22.6%"},
      {"compound": "CCOC(=O)c1noc2ncnc(Nc3cccc(OC)c3)c12", "activity change, negative = inhibition": "inconclusive: -30.2% [inhibitor]"},
      {"compound": "O=C(C1=NN[C@@H]2C(=O)N(c3ccccc3C(F)(F)F)C(=O)[C@H]12)c1cnccn1", "activity change, negative = inhibition": "inactive: 5.42%"},
      {"compound": "CC(Oc1cccc2ccccc12)C(=O)NC1(C#N)CCCCC1", "note": "(stereo not drawn)", "activity change, negative = inhibition": "inactive: -1.11%"},
      {"compound": "CCCn1c(=O)c2sccc2n2c(CCCC(=O)NCc3ccccc3)nnc12", "Potency": "inconclusive: 1.78 µM [inhibitor, full curve, poor fit]"},
      {"compound": "CCCn1ccc2oc(C)c(C(=O)NCc3ccc(CC)cc3)c2c1=O", "Potency": "inconclusive: 12.6 µM [inhibitor, partial curve]"},
      {"compound": "Cc1oc2ccn(Cc3ccc(F)cc3)c(=O)c2c1C(=O)NC1CCCCCC1", "Potency": "inconclusive: 14.1 µM [inhibitor, partial curve, poor fit]"},
      {"compound": "O=C(CCn1nc(-c2ccc(Cl)cc2)ccc1=O)NCCc1ccccc1", "Potency": "inconclusive: 15.8 µM [inhibitor, partial curve, poor fit]"},
      {"compound": "CCOC(=O)c1c(NC(=O)CSc2cn(CCNC(=O)c3c(F)cccc3F)c3ccccc23)sc2c1CCC2", "activity change, negative = inhibition": "inconclusive: -40.4% [inhibitor]"},
      {"compound": "Cc1ccc(NC(=O)CC(O)(c2nccn2C)C(F)(F)F)cc1C", "note": "(stereo not drawn)", "Potency": "inconclusive: 17.8 µM [inhibitor, partial curve, poor fit]"},
      {"compound": "CCCNc1cc(N2CCC(CCC(=O)Nc3cc(C)ccc3OC)CC2)ncn1", "Potency": "inconclusive: 11.2 µM [inhibitor, partial curve]"},
      {"compound": "CN1[C@@H](CCC(=O)Nc2ccccc2)CNC(=O)[C@@H]2[C@H]1CCN2Cc1nc2ccccc2n1C", "Potency": "inconclusive: 22.4 µM [inhibitor, partial curve, poor fit]"},
      {"compound": "COCCCNC(=O)[C@@H]1Cc2cn(Cc3nccn3C)c3cccc(c23)[C@H](CC(C)C)N1", "Potency": "inconclusive: 28.2 µM [inhibitor, partial curve, poor fit]"},
      {"compound": "COc1cccc(C(=O)Nc2ccc3oc(-c4cccc(Br)c4)nc3c2)c1", "Potency": "inconclusive: 39.8 µM [inhibitor, single point]"},
      {"compound": "CCC(=O)Oc1ccc(C2Nc3ccccc3-c3nnc(SC)nc3O2)cc1", "note": "(stereo not drawn)", "Potency": "inconclusive: 22.4 µM [inhibitor, partial curve, poor fit]"},
      {"compound": "CN(C)CCOCC1(C)COc2ccc(C(=O)NCc3cccc(F)c3)cc2N1", "note": "(stereo not drawn)", "Potency": "active: 39.8 µM"},
      {"compound": "CC(C)(C)c1csc(NC(=O)C2CCN(c3ccc(C#N)cn3)CC2)n1", "activity change, negative = inhibition": "inactive: 11.2%"},
      {"compound": "Cc1ccc2nc(-c3cc(NC(=O)COc4ccc(C)c(C)c4)ccc3Cl)oc2c1", "Potency": "inconclusive: 17.8 µM [inhibitor, partial curve, poor fit]"},
      {"compound": "Cc1ccc(-c2nc(C(=O)NCc3ccccc3Cl)c3n2CCCCC3)cc1", "Potency": "inconclusive: 28.2 µM [inhibitor, partial curve, poor fit]"},
      {"compound": "NC(N)=NCc1ccc(CN2CCCC2)cc1", "activity change, negative = inhibition": "inactive: -10.5%"},
      {"compound": "COc1ccc(C(=O)NC2CCN(c3cc(-c4cccs4)[nH]n3)C2)cn1", "note": "(stereo not drawn)", "Potency": "inconclusive: 17.8 µM [inhibitor, partial curve, poor fit]"},
      {"compound": "CCNc1c(NC(=O)NCc2ccc(F)cc2)c(=O)oc2ccccc12", "activity change, negative = inhibition": "inactive: 18.7%"},
      {"compound": "CCc1cccc(NC(=O)c2ccc(NC(=O)N3CCSc4ncccc43)cc2)c1", "Potency": "inconclusive: 31.6 µM [inhibitor, partial curve, poor fit]"},
      {"compound": "CCOC(C(=O)N(CC)CC(=O)NCc1cccs1)(c1ccccc1)c1ccccc1", "activity change, negative = inhibition": "inactive: 2.93%"},
      {"compound": "COc1cccc(CC(=O)N2CCC3(CC2)OC(=O)N(Cc2ncccn2)C3(C)c2ccccc2)c1", "note": "(stereo not drawn)", "activity change, negative = inhibition": "inactive: 11.2%"},
      {"compound": "Cc1nn(-c2ccccc2)c(C)c1CN(C)S(=O)(=O)c1c(Cl)cccc1Cl", "activity change, negative = inhibition": "inactive: -10.9%"},
      {"compound": "CN(C)C[C@@H]1CN(c2ccncn2)C[C@H]1NC(=O)c1cc(Cl)ccc1F", "activity change, negative = inhibition": "inactive: 17.6%"},
      {"compound": "Cc1cc(C)c(NC(=O)CSc2nncn3c2cc2oc(C)cc23)c(C)c1", "Potency": "inconclusive: 15.8 µM [inhibitor, partial curve, poor fit]"},
      {"compound": "Cc1ccn2c(Nc3ccc(C(C)C)cc3)c(-c3cccnc3)nc2c1", "Potency": "inconclusive: 39.8 µM [inhibitor, single point]"},
      {"compound": "COc1ccc(CNC(=O)Nc2cn(CC(C)C)c(=O)c3ccccc23)cc1", "Potency": "inconclusive: 17.8 µM [inhibitor, partial curve, poor fit]"},
      {"compound": "O=c1cc(-c2cnccn2)oc2c(Nc3ccccn3)nccc12", "Potency": "active: 39.8 µM"}
    ]}
  ]
}
